pIC50: −log10 of the molar value. Lines with a small IC50 respond at low doses; a limit (>, <) means that the fit lies beyond the doses tested. For AUC the same curve is integrated over the 256-fold range of doses and scaled to a fraction; the more sensitive the line, the further below 1. For part of these data: Any top dose called inferred is not printed in the source and was worked back from the curve model. For part of these data: Where an entry number is given, a second screen of the drug exists; the two often differ.
What was measured:
Assay in all cases: Viability of human cancer cell lines after 72 h of drug (GDSC screen)
NSC-207895 = compound: CN1CCN(c2ccc([N+](=O)[O-])c3no[n+]([O-])c23)CC1 [NSC-207895]; settings: top dose 20 µM; top dose inferred
Description: (§1)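 Human cancer cell lines in 384-well plates, medium with 10% serum, drug for 72 h over a 256-fold dose range (nine 2-fold or five 4-fold steps up to the top dose). Adherent lines were fixed and stained with the nucleic acid dye Syto60, suspension lines read with resazurin; signal relative to control wells, capped at 0 and 100%. One two-parameter sigmoid per drug and line, fitted in a mixed model over all curves with the slope shared within a line.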

Cyclopamine = compound: CC1=C2C[C@H]3[C@@H](CC=C4C[C@@H](O)CC[C@@]43C)[C@@H]2CC[C@]12O[C@@H]1C[C@H](C)CN[C@H]1[C@H]2C [Cyclopamine]; settings: top dose 16 µM; top dose inferred
Description: as §1

JNK Inhibitor VIII = compound: CCOc1nc(NC(=O)Cc2cc(OC)ccc2OC)cc(N)c1C#N [JNK Inhibitor VIII]; settings: top dose 10 µM; top dose inferred
Description: as §1

Docetaxel = compound: CC(=O)O[C@@]12CO[C@@H]1C[C@H](O)[C@@]1(C)C(=O)[C@H](O)C3=C(C)[C@@H](OC(=O)[C@H](O)[C@@H](NC(=O)OC(C)(C)C)c4ccccc4)C[C@@](O)([C@@H](OC(=O)c4ccccc4)[C@H]21)C3(C)C [Docetaxel]; settings: top dose 0.0125 µM
Description: as §1

AMG-706 = compound: CC1(C)CNc2cc(NC(=O)c3cccnc3NCc3ccncc3)ccc21 [AMG-706]; settings: top dose 2 µM; top dose inferred
Description: as §1

CGP-60474 = compound: OCCCNc1cc(-c2ccnc(Nc3cccc(Cl)c3)n2)ccn1 [CGP-60474]; settings: top dose 0.256 µM; top dose inferred
Description: as §1

FTI-277 = compound: COC(=O)[C@H](CCSC)NC(=O)c1ccc(NC[C@@H](N)CS)cc1-c1ccccc1 [FTI-277]; settings: top dose 1.024 µM; top dose inferred
Description: as §1

PHA-665752 = compound: Cc1[nH]c(/C=C2\C(=O)Nc3ccc(S(=O)(=O)Cc4c(Cl)cccc4Cl)cc32)c(C)c1C(=O)N1CCC[C@@H]1CN1CCCC1 [PHA-665752]; settings: top dose 2 µM
Description: as §1

SB-715992 = compound: Cc1ccc(C(=O)N(CCCN)[C@@H](c2nc3cc(Cl)ccc3c(=O)n2Cc2ccccc2)C(C)C)cc1 [SB-715992]; settings: top dose 0.128 µM; top dose inferred
Description: as §1

YM155 = compound: COCC[n+]1c2c(n(Cc3cnccn3)c1C)C(=O)c1ccccc1C2=O [YM155]; settings: top dose 5.12 µM
Description: as §1

JNJ-26854165 = compound: c1ccc2c(CCNc3ccc(Nc4ccncc4)cc3)c[nH]c2c1 [JNJ-26854165]; settings: top dose 10 µM
Description: as §1

Belinostat = compound: O=C(/C=C/c1cccc(S(=O)(=O)Nc2ccccc2)c1)NO [Belinostat]; settings: top dose 20 µM; top dose inferred
Description: as §1

JQ1 = compound: Cc1sc2c(c1C)C(c1ccc(Cl)cc1)=N[C@@H](CC(=O)OC(C)(C)C)c1nnc(C)n1-2 [JQ1]
Description: as §1

OSI-906 = compound: C[C@]1(O)C[C@@H](c2nc(-c3ccc4ccc(-c5ccccc5)nc4c3)c3c(N)nccn32)C1 [OSI-906]; settings: top dose 2.56 µM; top dose inferred
Description: as §1

[1] = top dose 1 µM, screen: GDSC drug entry 1218, top dose inferred
[2] = top dose 2.56 µM, screen: GDSC drug entry 163

Cell Line	AUC (NSC-207895)	pIC50 (NSC-207895)	AUC (Cyclopamine)	pIC50 (Cyclopamine)	AUC (JNK Inhibitor VIII)	pIC50 (JNK Inhibitor VIII)	AUC (Docetaxel)	pIC50 (Docetaxel)	AUC (AMG-706)	pIC50 (AMG-706)	AUC (CGP-60474)	pIC50 (CGP-60474)	AUC (FTI-277)	pIC50 (FTI-277)	AUC (PHA-665752)	pIC50 (PHA-665752)	AUC (SB-715992)	pIC50 (SB-715992)	AUC (YM155)	pIC50 (YM155)	AUC (JNJ-26854165)	pIC50 (JNJ-26854165)	AUC (Belinostat)	pIC50 (Belinostat)	AUC (JQ1; [1])	pIC50 (JQ1; [1])	AUC (JQ1; [2])	pIC50 (JQ1; [2])	AUC (OSI-906)	pIC50 (OSI-906)
ES7 (Ewing sarcoma, adherent)	0.926	< 4.70	0.984	< 4.80	0.976	< 5.00	0.445	9.26	0.938	< 5.70	0.86	6.65	0.973	< 5.99	0.97	< 5.70	0.529	8.02	0.027	> 7.70	0.87	5.01	0.166	6.94	0.98	< 6.00	0.839	5.74	0.923	< 5.59
ES-2 (ovary, adherent)	0.975	< 4.70	0.963	< 4.80	0.98	< 5.00	0.729	8.50	0.991	< 5.70	0.861	6.75	0.991	< 5.99	0.99	< 5.70	0.93	< 6.89	0.034	> 7.70	0.877	5.10	0.25	6.57	0.99	< 6.00	0.991	< 5.59	0.991	< 5.59
EW-3 (Ewing sarcoma, adherent)	0.825	4.84	0.982	< 4.80	0.981	< 5.00	0.917	< 7.90	0.957	< 5.70	0.87	< 6.59	0.96	< 5.99	0.957	< 5.70	0.855	6.90	0.082	> 7.70	0.91	< 5.00	0.338	6.38	0.871	< 6.00	0.972	< 5.59	0.802	5.83
EW-13 (Ewing sarcoma, suspension)	0.984	< 4.70	0.985	< 4.80	0.986	< 5.00	0.966	< 7.90	0.985	< 5.70	0.953	< 6.59	0.985	< 5.99	0.972	< 5.70	0.765	7.29	0.152	7.64	0.981	< 5.00	0.526	5.83	0.779	6.34	0.801	5.85	0.971	< 5.59
GT3TKB (stomach, adherent)	0.857	4.88	0.99	< 4.80	0.982	< 5.00	0.523	9.05	0.989	< 5.70	0.675	7.34	0.97	< 5.99	0.99	< 5.70	0.495	8.11	0.019	> 7.70	0.911	< 5.00	0.563	5.74	0.976	< 6.00	0.575	6.60	0.959	< 5.59
HT (B-cell lymphoma, suspension)	0.954	< 4.70	0.973	< 4.80	0.985	< 5.00	0.915	< 7.90	0.99	< 5.70	0.657	7.38	0.99	< 5.99	0.99	< 5.70	0.673	7.63	0.021	> 7.70	0.962	< 5.00	0.214	6.70	0.877	6.06	0.809	5.92	0.988	< 5.59
IST-SL1 (small cell lung carcinoma, semi-adherent)	0.72	5.27	0.974	< 4.80	0.979	< 5.00	0.682	8.59	0.978	< 5.70	0.833	6.76	0.981	< 5.99	0.975	< 5.70	0.75	7.37	0.075	> 7.70	0.871	5.00	0.154	6.99	0.845	6.12	0.678	6.29	0.979	< 5.59
JVM-2 (lymphoid neoplasm, suspension)	0.953	< 4.70	0.979	< 4.80	0.982	< 5.00	0.957	< 7.90	0.978	< 5.70	0.879	< 6.59	0.97	< 5.99	0.978	< 5.70	0.967	< 6.89	0.327	7.03	0.769	5.34	0.631	5.50	0.673	6.67	0.88	< 5.59	0.981	< 5.59
